In PubChem BioAssay AID504332 (National Center for Advancing Translational Sciences (NCATS), 2011):
About 31,000 (8.9%) of roughly 350,000 compounds were called active. Inconclusive results, whose numbers are uncertain, are shown with a selection of clear calls. Calls come from the whole dose curve; as a rule, active = well fitted inhibition curve with a large enough effect; inconclusive = small, poorly fitted or top-dose-only effect; inactive = no such curve, though single readings can be large or run the other way. Where the call is inconclusive, the potency comes from a doubtful curve fit.

Target: Histone-lysine N-methyltransferase EHMT2 (Homo sapiens) (UniProt Q96KQ7)
Sequence of UniProt Q96KQ7 (Q96KQ7 whole entry, looked up): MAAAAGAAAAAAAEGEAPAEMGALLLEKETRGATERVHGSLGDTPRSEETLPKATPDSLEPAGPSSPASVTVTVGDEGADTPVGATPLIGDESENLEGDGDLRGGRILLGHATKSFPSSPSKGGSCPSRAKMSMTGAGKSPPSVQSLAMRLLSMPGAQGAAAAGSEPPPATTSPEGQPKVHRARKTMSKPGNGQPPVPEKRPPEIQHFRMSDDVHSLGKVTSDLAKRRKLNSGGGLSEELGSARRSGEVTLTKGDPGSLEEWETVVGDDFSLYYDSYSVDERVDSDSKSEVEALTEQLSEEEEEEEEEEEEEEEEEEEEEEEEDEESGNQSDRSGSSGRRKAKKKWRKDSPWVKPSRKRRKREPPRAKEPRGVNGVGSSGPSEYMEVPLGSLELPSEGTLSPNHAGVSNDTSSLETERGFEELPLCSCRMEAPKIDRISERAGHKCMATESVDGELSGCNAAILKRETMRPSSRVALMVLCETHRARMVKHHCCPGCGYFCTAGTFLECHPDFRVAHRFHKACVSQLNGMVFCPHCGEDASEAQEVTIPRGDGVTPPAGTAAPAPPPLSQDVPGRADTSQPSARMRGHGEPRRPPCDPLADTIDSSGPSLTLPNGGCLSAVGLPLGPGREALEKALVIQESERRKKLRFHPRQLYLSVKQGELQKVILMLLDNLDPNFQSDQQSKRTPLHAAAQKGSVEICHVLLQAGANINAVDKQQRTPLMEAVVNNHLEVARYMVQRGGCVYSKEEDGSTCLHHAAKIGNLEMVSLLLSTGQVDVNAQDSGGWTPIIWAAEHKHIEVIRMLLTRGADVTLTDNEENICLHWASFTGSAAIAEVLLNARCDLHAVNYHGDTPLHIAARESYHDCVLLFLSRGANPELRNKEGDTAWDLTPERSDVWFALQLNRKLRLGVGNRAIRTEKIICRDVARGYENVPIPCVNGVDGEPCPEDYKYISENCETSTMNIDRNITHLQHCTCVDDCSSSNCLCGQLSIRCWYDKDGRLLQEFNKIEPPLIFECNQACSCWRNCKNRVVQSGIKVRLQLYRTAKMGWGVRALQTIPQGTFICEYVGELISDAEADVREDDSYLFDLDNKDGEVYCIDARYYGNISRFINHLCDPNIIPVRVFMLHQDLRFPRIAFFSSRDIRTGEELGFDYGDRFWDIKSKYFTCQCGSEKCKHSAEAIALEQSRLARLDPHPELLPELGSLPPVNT
Assay: qHTS Assay for Inhibitors of Histone Lysine Methyltransferase G9a; note: nearly all actives have a fitted effect of over 75% in size
Settings: G9a H3K9 monomethylation, AlphaScreen, 2 h; activity, negative = inhibition: at 59 µM (top of the series) unless noted
Summary of the method: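 Chemiluminescent proximity detection of H3K9 monomethylation, read after 10 min bead incubation in the dark. Reaction: 20 nM G9a, 500 nM biotin-H3K9 peptide, 20 uM SAM cofactor, 2 h, room temperature, following 15 min enzyme-compound preincubation.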
% is set by controls: 0 for no effect and ±100 for the full control effect; potency is the fitted concentration of half-maximal effect; tags give direction and shape of the fitted curve.

| Compound | Potency | activity, negative = inhibition |
| --- | --- | --- |
| c1ccc(Cc2ccc(OCCCNC3CCCC3)cc2)cc1 | active: 12.6 µM | – |
| CCOC(=O)C1=C(c2cccc(Oc3ccccc3)c2)NC(=S)NC1C (centres undefined) | inactive | – |
| CC/C(=N\NC(=S)NC(C)C)c1ccc(OC)c(OC)c1 | inconclusive: 70.8 µM [inhibitor, single point] | – |
| COc1ccc2oc(=O)cc(CN3CCN(c4ccccc4OC)CC3)c2c1 | inactive | – |
| CNc1cc(OC)c(C(=O)N[C@@H]2CCN(Cc3ccccc3)[C@H]2C)cc1Cl | – | inactive: 2.14% [at 12.7 µM] |
| COc1ccc(C(CNC(=O)c2ccc(Cl)c(NC(=O)c3cccs3)c2)N2CCCC2)cc1 (centres undefined) | inconclusive: 50.1 µM [inhibitor, partial curve] | – |
| CCCC12CN3CC(C)(CN(C1)C31CCCCC1)C2=O | inconclusive: 79.4 µM [inhibitor, single point] | – |
| O=C(NCCN1C(=O)S/C(=C\c2ccc(Cl)c([N+](=O)[O-])c2)C1=O)C1=COCCO1 | inconclusive: 50.1 µM [inhibitor, partial curve, poor fit] | – |
| O=[N+]([O-])c1ccc(Nc2ccccc2O)c2nonc12 | inconclusive: 17.8 µM [inhibitor, single point] | – |
| N#Cc1c(C(F)(F)F)cc(-c2ccco2)nc1SCc1ccncc1 | inconclusive: 22.4 µM [inhibitor, single point] | – |
| O=C(O)C1=C(C(=O)Nc2ccc(F)c(Cl)c2)CCCC1 | inconclusive: 25.1 µM [inhibitor, partial curve, poor fit] | – |
| CCOC(=O)c1cc(S(=O)(=O)NCc2ccc(F)cc2)[nH]n1 | active: 3.16 µM | – |
| COCCCNC(=O)CN(Cc1ccc(Cl)cc1)S(C)(=O)=O | – | inconclusive: -58.9% [inhibitor] [at 12.7 µM] |
| CC1CCCN(C(=O)COC(=O)C2CCN(S(=O)(=O)c3c(Cl)cccc3Cl)CC2)C1 (centres undefined) | inconclusive: 89.1 µM [inhibitor, partial curve, poor fit] | – |
| CN(C)CCCN(C(=O)COc1ccccc1)c1nc2ccc(F)cc2s1 | inconclusive: 2 µM [inhibitor, partial curve, poor fit] | – |
| CN1CCN(c2ccccc2NC(=O)c2ccc(N3CCCCC3)c([N+](=O)[O-])c2)CC1 | – | inconclusive: -91.4% [inhibitor] |
| O=C(Nc1ccc(F)cc1)C1CC(=O)n2ncnc2N1 (centres undefined) | inactive | – |
| CCc1ccc(CNC(=O)Cn2nc(C)c3c(C)n(-c4ccc(C)cc4)nc3c2=O)cc1 | inactive | – |
| NC(N)=Nc1nc(-c2ccccc2)c2cc(F)ccc2n1 | inconclusive: 56.2 µM [inhibitor, partial curve, poor fit] | – |
| COCCNC(=O)Cn1c(=O)n(Cc2ccc(C(=O)NCc3ccco3)cc2)c(=O)c2ccccc21 | inactive | – |
| C=CCSc1nnc(-c2cc3c(C(F)(F)F)nn(C)c3s2)n1C | active: 70.8 µM | – |
| O=S(=O)(NCc1cccnc1)c1ccc(Cl)s1 | inconclusive: 35.5 µM [inhibitor, full curve, poor fit] | – |
| CCCC(=O)n1nc(-c2ccco2)nc1N | inconclusive: 22.4 µM [inhibitor, single point] | – |

| Compound | Potency | activity, negative = inhibition |
| --- | --- | --- |
| CCOC(=O)N1CCN(C(=O)c2ccc(S(=O)(=O)NCc3ccco3)cc2)CC1 | inconclusive: 89.1 µM [inhibitor, single point] | – |
| Cc1ccn2c(NC(=O)C(C)(C)Oc3ccc(Cl)cc3)c(-c3cccs3)nc2c1 | inconclusive: 25.1 µM [inhibitor, single point] | – |
| COc1ccc(C(=O)N/N=C/c2ccc(OC)c(CN3CCCc4ccccc43)c2)cc1 | inconclusive: 3.55 µM [inhibitor, full curve, poor fit] | – |
| COc1ccc(CN(C)c2ccc(-c3nc(C)no3)cc2[N+](=O)[O-])cc1 | inactive | – |
| Cc1ccc(S(=O)(=O)NCC(=O)OCC(=O)NC(=O)c2cccn2C)cc1 | inconclusive: 22.4 µM [inhibitor, single point] | – |
| CC1CC(C)CN(C(=O)Cn2nnc(-c3ccc(Br)cc3)n2)C1 (centres undefined) | inactive | – |
| CCN(CCCNC(=O)CSc1cc(=O)n(C)c2cc(Cl)ccc12)c1ccccc1 | inconclusive: 10 µM [inhibitor, partial curve, poor fit] | – |
| CCCn1c(=O)[nH]c(=O)c2c1nc(-c1ccc(C#N)cc1)n2CCOC | inconclusive: 89.1 µM [inhibitor, single point] | – |
| Cn1c(=O)c(=O)n(C)c2cc(N3CCCC3)c(NS(=O)(=O)c3ccc(Cl)cc3)cc21 | inconclusive: 22.4 µM [inhibitor, single point] | – |
| COCCNC(=O)C(=O)Nc1c2c(nn1-c1ccccc1)CS(=O)(=O)C2 | inconclusive: 17.8 µM [inhibitor, partial curve, poor fit] | – |
| O=C(NC(=S)NCCN1CCOCC1)c1ccccc1 | inactive | – |
| COc1ccc(NC(=O)CSc2nc3ccccc3c3nc4ccccc4n23)cc1 | inconclusive: 25.1 µM [inhibitor, single point] | – |
| O=C(O)CN1C(=O)/C(=C\c2cc(Br)ccc2OCc2ccccc2F)SC1=S | active: 39.8 µM | – |
| O=C(c1ccc(S(=O)(=O)N2CCCCCC2)cc1)N1CCN(c2ccccc2)CC1 | inactive | – |
| COc1ccccc1CNc1nc(-c2ccco2)nn1S(=O)(=O)c1ccc(Cl)cc1 | inconclusive: 10 µM [inhibitor, partial curve, poor fit] | – |
| CCOc1[nH]n(-c2ccccc2)c(=O)c1C=Nc1ccc(C(=O)OC)cc1 | inconclusive: 50.1 µM [inhibitor, partial curve] | – |
| CN(c1ccccc1C(=O)Nc1ccc2c(c1)OCO2)S(C)(=O)=O | inconclusive: 39.8 µM [inhibitor, single point] | – |
| CCOC(=O)c1c(C)sc(-c2c(-c3cc(C)ccc3C)[nH]c3c2c(=O)[nH]c(=O)n3C)c1O | inconclusive: 28.2 µM [inhibitor, partial curve, poor fit] | – |
| CCOc1ccc(CCNC(=O)Cn2nc(C)c3c(C)n(-c4ccccc4)nc3c2=O)cc1OCC | inactive | – |
| C#CCOCCOCCOCCNc1nc(N2CCN(C(=O)C([C@@H](C)CC)n3cc(C(N)CC(C)C)nn3)CC2)nc(N2CCN(C(=O)[C@H](CCC(=O)O)n3cc(C(N)Cc4ccc(O)cc4)nn3)CC2)n1 (some centres undefined) | – | inconclusive: -81.7% [inhibitor] |
| COc1ccc(Cl)cc1NC(=S)NCCSc1ccc(C)cc1 | inactive | – |
| Cc1ccc(NC(=O)CSc2n[nH]c(-c3ccncc3)n2)cc1 | inactive | – |
| CC1(C)Cc2nc3sc4c(=O)[nH]cnc4c3cc2CS1 | – | inconclusive: -56.3% [inhibitor] |

| Compound | Potency | activity, negative = inhibition |
| --- | --- | --- |
| CC(C)(C)OC(=O)N1Cc2ccccc2C[C@H]1C(=O)NCC(=O)NC1CCCCC1 | inactive | – |
| O=C(c1ccco1)N1CCN(c2cc(=O)n(-c3ccc(Cl)cc3)c(=O)[nH]2)CC1 | inconclusive: 39.8 µM [inhibitor, single point] | – |
| COc1ccc2oc(C(=O)N3CCN(S(=O)(=O)c4cccc([N+](=O)[O-])c4)CC3)c(C)c2c1 | inactive | – |
| COc1cccc(CNC(=O)CCC(=O)N2CC3CCCN3c3ccccc32)c1 (centres undefined) | inconclusive: 28.2 µM [inhibitor, partial curve, poor fit] | – |
| CCSc1nnc(NC(=O)C(C)Sc2nc3ccccc3[nH]2)s1 (centres undefined) | inconclusive: 89.1 µM [inhibitor, single point] | – |
| COC(=O)c1ccc(NC(=O)Cc2ccccc2)cc1 | inactive | – |
| Cc1cccc(C)c1NC(=O)CNC(=O)c1ccc(S(=O)(=O)NCc2ccco2)cc1 | inconclusive: 14.1 µM [inhibitor, single point] | – |
| Cc1ccc(C2=NCCn3nc4cc(C(F)(F)F)ccc4c32)cc1 | – | inconclusive: -129% [inhibitor] [at 2.33 µM] |
| C=C(C)CNC(=S)NNC(=O)CCn1c2cc(Cl)ccc2c2ccc(Cl)cc21 | inactive | – |
| CCOc1cc(C(=O)NCc2ccc3c(c2)CCN3C(=O)CC)cc(OCC)c1OCC | inactive | – |
| Cc1cc2nc(-c3ccccn3)c(-c3ccccn3)nc2cc1C | inactive | – |
| COc1cc(OC)cc(C(=O)NCc2cc(C)nc3ccccc23)c1 | inconclusive: 22.4 µM [inhibitor, partial curve] | – |
| Cc1oc(-c2cccc(Cl)c2)nc1CS(=O)(=O)CC(=O)NCCN1CCCC1 | inconclusive: 79.4 µM [inhibitor, single point] | – |
| CN(C)S(=O)(=O)N1CCC(n2nccc2NC(=O)CCCc2ccccc2)CC1 | inactive | – |
| O=C(Nc1ccc2oc(-c3ccncc3)nc2c1)c1ccc2c(c1)OCO2 | – | inconclusive: -96.1% [inhibitor] |
| O=[N+]([O-])c1cccc(CN2CCN(c3cccc4[nH]ccc34)CC2)c1 | active: 31.6 µM | – |
| Cc1ccccc1N(Cc1cc(=O)[nH]c2ccccc12)C(=O)C(C)C | active: 79.4 µM | – |
| O=S(=O)(Nc1ccc2c(c1)OCCO2)c1cccs1 | inconclusive: 100 µM [inhibitor, partial curve, poor fit] | – |
| Cc1ccc([N+](=O)[O-])cc1NC(=S)NC(=O)c1cccs1 | inconclusive: 79.4 µM [inhibitor, single point] | – |
| CCc1nnc(NC(=O)CCC(=O)NCCc2ccccc2)s1 | inactive | – |
| COc1cccc(/C=C/C(=O)OCC(=O)c2c[nH]c3ccccc23)c1 | inactive | – |
| COc1cccc(C(c2sc3nc(C)nn3c2O)N2CCN(C(=O)c3ccco3)CC2)c1 (centres undefined) | inconclusive: 39.8 µM [inhibitor, partial curve, poor fit] | – |
| COc1ccc(OC)c(NC(=O)C2CCCN(S(=O)(=O)c3c(C)noc3C)C2)c1 (centres undefined) | inconclusive: 10 µM [inhibitor, partial curve, poor fit] | – |
